Screen size: about 44,000 compounds; about 340 (0.77%) were called active. Not shown: some 5% with an inconclusive outcome. The call rests on the fitted dose curve; in most records, active means well fitted inhibition curve with a large enough effect; inconclusive means small, poorly fitted or top-dose-only effect; inactive means flat fitted curve, though single readings scatter. The list shows a part of the results.
experiment: Acumen qHTS Assay for Inhibitors of the mTORC1 Signaling Pathway in MEF (Tsc2-/-, p53-/-) Cells: Sytravon; details: phospho-rpS6 immunofluorescence/PI, 24 h; series mostly up to 38.3 µM; activity change, negative = inhibition: at the top concentration; further: nearly all actives have a fitted effect of over 50% in size;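 on activity change, negative = inhibition: plate controls were DMSO for no effect and rapamycin for full effect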
How it was run: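 Plate MEFs (Tsc2-/-, p53-/-, empty vector) in DMEM/10% FBS; after 24 h add compound, incubate 24 h at 37 degree Celsius; fix in PFA/TX-100, block, stain phospho-rpS6 and 10 uM PI; scan at 488 nm; report % positive cells.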
Potency means the concentration at half of the fitted maximal effect.

Row | Structure (SMILES) | activity change, negative = inhibition | Potency
1 | COc1ccc(NC(=O)CN(C)S(=O)(=O)c2ccc3nc(C)sc3c2)cc1Cl | inactive: 0.974% | –
2 | COc1ccc(CCNCc2c(C(=O)O)c(C)n(Cc3cccc(C)c3)c2C)cc1OC | inactive: -0.69% | –
3 | Cc1cccc(Nc2nnc(-c3ccc(C)c(S(=O)(=O)N4CCOCC4)c3)c3ccccc23)c1 | inactive: 21.8% | –
4 | CCCOc1ccc(C(=O)Nc2ccc(NC(=O)c3ccc(Br)cc3)cc2)cc1 | inactive: 3.72% | –
5 | CCOC(=O)c1scc(-c2ccc(C)cc2)c1S(=O)(=O)N1CCN(c2ccccc2)CC1 | inactive: -12.2% | –
6 | Cc1cc(C)cc(NC(=O)C2CCN(c3nnc(-n4c(C)ccc4C)s3)CC2)c1 | inactive: -9.97% | –
7 | CCc1cccc(NC(=O)CN(C)S(=O)(=O)c2ccc3c(c2)n(C)c(=O)c(=O)n3C)c1 | inactive: -11.5% | –
8 | COc1ccc(-c2noc(COc3ccc(C)cc3C)n2)cc1OC | inactive: 0.188% | –
9 | CC(=O)c1ccc(NS(=O)(=O)c2ccc3[nH]c(=O)[nH]c3c2)cc1 | inactive: -6.19% | –
10 | COc1ccc(S(=O)(=O)N(CC(=O)Nc2ccc(C)cc2)c2ccc(C)cc2)cc1OC | inactive: -5.13% | –
11 | COc1ccc(-n2c(SCC(=O)Nc3ccc4c(c3)OCO4)nc3c([nH]c4ccccc43)c2=O)cc1 | inactive: -6.38% | –
12 | COc1ccc(Cl)cc1NC(=O)c1noc2c1CCc1ccccc1-2 | inactive: 1.59% | –
13 | O=C(CN1C(=O)c2ccccc2Sc2ncccc21)Nc1cccc(C(F)(F)F)c1 | inactive: -3.92% | –
14 | COc1cccc(CNC(=O)C2=C(C)C(=O)OC23CCCCCC3)c1 | inactive: -2.86% | –
15 | Cc1cccc(N2CCN(C(=O)CCNS(=O)(=O)c3ccc4c(c3)CCN4C(=O)C3CC3)CC2)c1C | inactive: -18.5% | –
16 | COc1ccc(Nc2cc(C)c3cc(NC(=O)COc4cccc(C)c4)ccc3n2)cc1 | inactive: -25.5% | –
17 | CCOc1ccccc1NC(=O)CN(c1cc(C)cc(C)c1)S(=O)(=O)c1c(C)nn(C)c1C | inactive: 1.28% | –
18 | Cc1cc(C)c(Cn2cnc3nc4c(cc3c2=O)CCCC4)c(C)c1 | inactive: 0% | –
19 | CCOc1ccc2nc(Cl)c(C3CC(c4ccccc4)=NN3C(=O)CCC(=O)O)cc2c1 (configuration not stated) | inactive: -4.55% | –
20 | CCOc1ccc(NC(=O)N2CCC(n3c(C)nc4cccnc43)CC2)cc1 | inactive: 3.77% | –
21 | CCOc1ccc(C(=O)NCC(c2ccc3c(c2)OCO3)N2CCN(C)CC2)cc1 (configuration not stated) | inactive: 0.209% | –
22 | CCc1cc(=O)oc2c(C)c(OCC(=O)Nc3ccc(S(=O)(=O)N(CC)CC)cc3)ccc12 | inactive: -2.84% | –
23 | Cc1ccc(-c2nnc(Nc3ccc(O)cc3)c3ccccc23)cc1S(=O)(=O)NC(C)(C)CO | inactive: 0.0932% | –

Row | Structure (SMILES) | activity change, negative = inhibition | Potency
24 | Cc1nn2c(C)c(C(=O)NCc3cccc(Br)c3)cnc2c1-c1ccccc1 | inactive: -10.5% | –
25 | Cc1ccc(Cl)cc1N1CCN(C(=O)COc2cc(=O)n(C)c3ccccc23)CC1 | inactive: -18.2% | –
26 | COc1cc2c(cc1OC)C(COc1ccccc1OC)N(C(=O)c1ccc(S(=O)(=O)N(C)C)cc1)CC2 (configuration not stated) | inactive: 9.49% | –
27 | COc1ccc(Nc2nc3c(S(=O)(=O)c4ccc(C)cc4)nnn3c3ccsc23)cc1Cl | inactive: -0.983% | –
28 | CC(=O)N1CCc2c(sc3c2c(=O)n(Cc2ccccc2)c(=O)n3Cc2ccccc2Cl)C1 | inactive: -8.34% | –
29 | Cc1ccc(/C=C/c2onc(C)c2S(=O)(=O)N2CCC(C(=O)N3CCN(c4cc(C)ccc4C)CC3)CC2)cc1 | inactive: -1.33% | –
30 | CCCCN(CC)C(=O)CSc1nc2ccccc2c(=O)n1Cc1ccco1 | inactive: -1.46% | –
31 | CC1CN(C(=O)N2CCC(C(=O)NCc3cccs3)CC2)c2ccccc2O1 (configuration not stated) | inactive: -3.7% | –
32 | CCC1CCCCN1CCCNC(=O)c1c(O)nc2cc(C)ccn2c1=O (configuration not stated) | inactive: 1.57% | –
33 | COc1ccc(NC(=O)C2CCN(c3ccc(Sc4ccc(C)cc4)nn3)CC2)cc1 | inactive: -0.658% | –
34 | COC(=O)c1cc2sc(Cl)cc2n1Cc1nc(-c2ccccc2C)oc1C | inactive: -0.0551% | –
35 | COc1cccc(CNC(=O)Cn2c(=O)nc(-c3ccccc3F)c3cc(Cl)ccc32)c1 | inactive: 0% | –
36 | CC1CCN(S(=O)(=O)c2ccc3c(c2)N(CC(=O)NC(C)(C)C)C(=O)CS3)CC1 | inactive: -3.92% | –
37 | COc1ccc(Nc2oc(/C=C/c3cc(OC)c(OC)c(OC)c3)nc2C#N)cc1 | inactive: -3.02% | –
38 | COc1ccccc1C(=O)Nc1ccc(S(=O)(=O)Nc2nc(C)cc(C)n2)cc1 | inactive: -2.21% | –
39 | Cc1oc2ncnc(N3CCCCC3)c2c1C(=O)N1CCN(c2ccc(Cl)cc2)CC1 | inactive: -1.64% | –
40 | COc1ccc(S(=O)(=O)N(CC(=O)NCCc2ccccc2)c2ccc(Cl)cc2)cc1 | inactive: 2.04% | –
41 | CCOc1ccc(C(=O)c2oc3ccccc3c2NC(=O)c2cc(=O)c3ccc(C)cc3o2)cc1 | inactive: -6.99% | –
42 | COc1ccc(-c2nc3c4ccccc4n(CC(=O)N4CCN(c5ccccc5F)CC4)c(=O)n3n2)cc1 | inactive: 0.141% | –
43 | CCCCN(CC)CCNC(=O)c1nn(C)c2c1CS(=O)(=O)c1ccccc1-2 | inactive: 6.95% | –
44 | CCc1ccc(NC(=O)CCCc2nnc3n(C(C)CC)c(=O)c4sccc4n23)cc1 (configuration not stated) | inactive: -1.81% | –
45 | Cc1ccc(NC(=O)CSc2nnc(NC(=O)NC3CCCCC3)s2)cc1 | inactive: -7.89% | –
46 | CCCS(=O)(=O)N1CC(=O)N(c2ccc(Cl)cc2C)C(C)(C(=O)NC2CCCC2)C1 (configuration not stated) | inactive: 1.23% | –

Row | Structure (SMILES) | activity change, negative = inhibition | Potency
47 | COc1cc2nc(NC(=O)c3ccc(S(=O)(=O)N4CCOCC4)cc3)sc2cc1OC | inactive: -11.8% | –
48 | COc1ccc(NC(=O)CSC2=Nc3ccccc3C3=NC(CCC(=O)NC4CCCCC4)C(=O)N23)cc1 (configuration not stated) | inactive: -6.13% | –
49 | CC(=O)c1cccc(NC(=O)C2CCN(S(=O)(=O)c3ccc4c(c3)oc(=O)n4C)CC2)c1 | inactive: 1.42% | –
50 | CCOC(=O)c1cccc(NC(=O)CCn2c(-c3ccc(F)cc3)cc(C(=O)OCC)c2C)c1 | inactive: -3% | –
51 | O=C(CSCc1ccccc1Cl)N1CCN(c2ccc(Cl)cc2)CC1 | inactive: 7.01% | –
52 | CCOC(=O)C1CCN(C(=O)c2ccc(-n3ccc4ccccc43)s2)CC1 | inactive: -5.97% | –
53 | Cc1cccc(NC(=O)N2CC(=O)Nc3sc4c(c3C2c2ccccc2)CCCC4)c1C (configuration not stated) | inactive: 3.04% | –
54 | Cc1ccc(C(=O)c2cn(CC(=O)Nc3ccc(C)cc3Cl)c3nc(C)ccc3c2=O)cc1 | inactive: 5.81% | –
55 | CCOc1cc(CNC(=O)c2ccc3c(c2)NC(=O)C2CCCCN32)cc(OCC)c1OCC (configuration not stated) | inactive: -0.484% | –
56 | Cc1cn2c(=O)cc(COC(=O)c3ccc(NC(=O)COc4ccccc4F)cc3)nc2s1 | inactive: 0% | –
57 | CCOc1ccccc1OCCCn1c(-c2ccc(Cl)cc2)nc2ccccc2c1=O | inactive: -0.977% | –
58 | Cc1cc(C)cc(-n2c(-c3ccccc3)c(C)n3c4c(=O)n(C)c(=O)n(C)c4nc23)c1 | inactive: 2.06% | –
59 | COc1cc(C(=O)NCC(c2cccs2)S(=O)(=O)c2cccs2)cc(OC)c1OC (configuration not stated) | inactive: -8.39% | –
60 | CCc1ccccc1NC(=O)c1cnc(N2CCCCC2)c2ccccc12 | inactive: 5.15% | –
61 | CCOc1ccc(CCNC(=O)Cn2nc(CC)n3c(cc4ccccc43)c2=O)cc1 | inactive: -5.6% | –
62 | COc1ccc(-c2c3c(=O)n(C)c(=O)n(C)c3c3n2-c2ccccc2NC3c2ccco2)cc1 (configuration not stated) | inactive: -1.83% | –
63 | CCOC(=O)c1[nH]c(C)c(CCC(=O)Nc2cc(C)ccc2OC)c1C | inactive: 2.07% | –
64 | Cc1ccccc1CN1CCC(CNC(=O)c2c(C)oc3ncnc(N4CCCCC4)c23)CC1 | inactive: -4.98% | –
65 | CCN1C(=O)c2ccccc2S(=O)c2ccc(C(=O)N3CCN(c4cc(Cl)ccc4C)CC3)cc21 (configuration not stated) | inactive: -13.2% | –
66 | CCC(Sc1nc(-c2ccccc2F)nc2c1Cc1c(CO)cnc(C)c1O2)C(=O)Nc1cc(C)ccc1C (configuration not stated) | inactive: -3.93% | –
67 | CCOc1ccc(CCNC(=O)C2=C(C)C(=O)OC23CCCCC3)cc1 | inactive: 6.44% | –
68 | Fc1ccc(-c2noc3ncnc(NCc4ccc(Cl)cc4)c23)cc1 | inactive: -7.42% | –
69 | O=C(CCn1c(=O)c2cccn2c2cccnc21)NCc1ccc(F)cc1 | inactive: 2.91% | –

Row | Structure (SMILES) | activity change, negative = inhibition | Potency
70 | CN(Cc1ccccc1)C(=O)c1ccc2c(c1)N(Cc1ccccc1Cl)C(=O)c1ccccc1S2 | inactive: -2.88% | –
71 | COc1cc(C2CC(=O)Oc3c2c(=O)n(C)c2ccccc32)ccc1O (configuration not stated) | inactive: -18.1% | –
72 | CCOC(=O)C1CCN(S(=O)(=O)c2ccc3c(c2)N(C)C(=O)CC(=O)N3C)CC1 | inactive: 0.0448% | –
73 | COc1ccc(C(=O)NC2(C(F)(F)F)C(=O)Nc3c2c(=O)[nH]c(=O)n3CCc2ccc(OC)c(OC)c2)cc1 (configuration not stated) | inactive: 11% | –
74 | O=C(COc1ccccc1)Nc1ccc2nc(SCCOc3ccccc3)sc2c1 | inactive: -0.534% | –
75 | CCOC(=O)c1c(C)[nH]c(C)c1S(=O)(=O)N(C)CC(=O)Nc1ccc(C)cc1C | inactive: 8% | –
76 | Cc1cc(C)c2oc(-c3cccc(NC(=O)COc4ccc([N+](=O)[O-])cc4)c3)nc2c1 | – | active: 20.7 µM
77 | Cc1ccc(NC(=O)Cn2c(=O)n(CC3CCCO3)c(=O)c3ccccc32)cc1 (configuration not stated) | inactive: -1.23% | –
78 | Cc1ccc(Cl)cc1N1CCN(C(=O)c2ccc(CS(=O)(=O)c3ccccc3C)o2)CC1 | inactive: -11.9% | –
79 | Cc1cccc(-c2nnc(C3CCN(S(=O)(=O)c4cccc(Cl)c4)CC3)o2)c1 | inactive: -21.2% | –
80 | CCOc1cc2[nH]c(=O)n(Cc3ccc(C(=O)N4CCN(c5cccc(Cl)c5)CC4)cc3)c(=O)c2cc1OCC | inactive: -0.278% | –
81 | COc1cc(C2NC(=O)c3c(sc4c3CCN(C)C4)N2)cc(OC)c1OC (configuration not stated) | inactive: -0.72% | –
82 | CC(=O)CSc1nnc2[nH]c(=O)cc(N)n12 | inactive: -7.22% | –
83 | O=C(Cn1c(=O)nc(-c2ccccc2)c2cc(Cl)ccc21)N1CCN(c2ccc(F)cc2)CC1 | inactive: 14.4% | –
84 | COc1ccc(Br)cc1CN1C(=O)c2ccccc2C1C(=O)NC1CCCCCC1 (configuration not stated) | inactive: 9.49% | –
85 | CCOC(=O)c1c(C)c(-c2ccccc2)n(CC(=O)NC2CCCCC2)c1C | inactive: -7.4% | –
86 | CCOC(=O)c1c(C)[nH]c(C)c1S(=O)(=O)N1CCCC(C(=O)N2CCN(c3cccc(C)c3C)CC2)C1 (configuration not stated) | inactive: -5.34% | –
87 | COc1ccc(Cl)cc1NC(=O)c1nn(-c2ccc(C)cc2)c(=O)n(C)c1=O | inactive: 4.03% | –
88 | COc1cc(NC(=O)Cn2cnc(S(=O)(=O)N3CCCC3)c2)cc(OC)c1OC | inactive: -1.25% | –
89 | Cc1cccc(CNC(=O)CS(=O)(=O)c2cccc3nsnc23)c1 | inactive: 2.55% | –
90 | CCN(C(=O)c1cnc2ccc(C)cn2c1=O)c1ccccc1 | inactive: -0.324% | –
91 | COCCNC(=O)c1cnc2sc(N3CCC(C)CC3)nn2c1=O | inactive: 0% | –
92 | CCc1ccc(NC(=O)C2CCN(c3nn4c(=O)cc(C)nc4s3)CC2)cc1 | inactive: -6.53% | –
